Measurements taken from publication PMC4336329 (PLoS ONE, 2015).
Out of some 310,000 compounds screened, about 2,200 (0.71%) showed an effect of 50% or more. Effects have a minus sign here. The list shows a part of the results.

Biological target: human ether-à-go-go-related gene (hERG) potassium channel (human, UniProt Q12809)
Test: primary screen, population patch clamp on CHO cells stably expressing hERG

Sequence of human ether-à-go-go-related gene (hERG) potassium channel (Q12809 whole entry, looked up): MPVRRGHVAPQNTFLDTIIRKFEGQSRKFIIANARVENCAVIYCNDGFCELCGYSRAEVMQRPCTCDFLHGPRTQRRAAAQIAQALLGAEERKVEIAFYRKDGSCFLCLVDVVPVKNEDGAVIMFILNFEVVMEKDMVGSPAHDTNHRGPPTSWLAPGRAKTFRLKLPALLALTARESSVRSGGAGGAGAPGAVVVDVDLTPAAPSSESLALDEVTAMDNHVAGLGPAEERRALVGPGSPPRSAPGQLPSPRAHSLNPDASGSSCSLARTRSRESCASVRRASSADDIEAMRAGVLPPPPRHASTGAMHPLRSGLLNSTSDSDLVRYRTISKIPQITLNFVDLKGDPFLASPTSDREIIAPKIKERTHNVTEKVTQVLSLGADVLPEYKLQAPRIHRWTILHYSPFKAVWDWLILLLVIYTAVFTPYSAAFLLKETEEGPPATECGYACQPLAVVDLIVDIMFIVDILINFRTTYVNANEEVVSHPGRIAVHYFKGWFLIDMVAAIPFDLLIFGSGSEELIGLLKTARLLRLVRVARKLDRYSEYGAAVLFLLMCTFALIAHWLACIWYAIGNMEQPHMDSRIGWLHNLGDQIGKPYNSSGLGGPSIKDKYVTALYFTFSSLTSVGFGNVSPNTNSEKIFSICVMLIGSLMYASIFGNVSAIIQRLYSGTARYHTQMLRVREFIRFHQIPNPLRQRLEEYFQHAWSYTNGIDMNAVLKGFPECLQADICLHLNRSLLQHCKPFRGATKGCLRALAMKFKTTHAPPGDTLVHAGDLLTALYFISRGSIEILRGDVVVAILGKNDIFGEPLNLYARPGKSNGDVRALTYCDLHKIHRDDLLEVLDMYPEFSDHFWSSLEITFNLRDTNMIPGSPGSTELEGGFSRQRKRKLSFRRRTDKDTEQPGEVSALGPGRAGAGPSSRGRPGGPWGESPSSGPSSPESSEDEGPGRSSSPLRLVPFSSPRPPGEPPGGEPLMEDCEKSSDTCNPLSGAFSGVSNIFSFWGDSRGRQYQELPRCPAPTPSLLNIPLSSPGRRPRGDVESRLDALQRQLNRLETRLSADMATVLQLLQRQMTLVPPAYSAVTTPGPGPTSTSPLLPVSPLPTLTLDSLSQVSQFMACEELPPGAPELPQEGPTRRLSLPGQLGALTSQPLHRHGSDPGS

SMILES	hERG current change (%, negative = inhibition) at 1uM [%]
Cc1ccc(S(=O)(=O)N2CCN(C(=O)c3ccccc3Cc3ccccc3)CC2)c(C)c1	12.5
O=C(COC(=O)c1c2c(nc3ccccc13)/C(=C\c1cccs1)CCC2)Nc1ccccc1Cl	8.16
O=C(c1nn(-c2ccccc2)c(=O)c2ccccc12)N1CCN(c2ncccn2)CC1	11.8
CCC(=O)Nc1nc2ccccc2n1Cc1ccccc1Cl	13.5
COc1ccccc1NC(=O)CNC(=O)Cn1cnc2sc(C)c(C)c2c1=O	4.61
Cc1ccc(NC(=O)CN(C)C(=O)c2cc3ccccc3o2)cc1	9.37
CCc1nnc(N2C(=O)c3ccc(Oc4ccc([N+](=O)[O-])cc4)cc3C2=O)s1	10.8
CC1Nc2ccccc2C(=O)N1NS(C)(=O)=O (stereo not drawn)	14.3
Cc1cc2c(cc1S(=O)(=O)CCC(=O)NCc1ccccc1)OCC(=O)N2	10.2
O=C(CN1CCC(O)(c2ccccc2F)CC1)NCCc1c[nH]c2ccccc12	9.77
Cc1nc(CS(=O)c2ccc(Cl)cc2)cc(NCc2ccc(Cl)cc2Cl)n1 (stereo not drawn)	15.6
COC(=O)c1cccc(NS(C)(=O)=O)c1C	5.4
CC1CN(C(=O)c2ccc(NS(=O)(=O)c3ccc(F)c(F)c3)cc2)CC(C)O1 (stereo not drawn)	-3.74
Cc1ccc(Cl)cc1NC(=O)CN1CCN(C(=O)C2CCCO2)CC1 (stereo not drawn)	-6.83
O=C(NNC1=NS(=O)(=O)c2ccccc21)c1cccc([N+](=O)[O-])c1	10.7
Cc1oc(-c2cccs2)[n+]([O-])c1C.Cl	4.52
Cn1nc(C(=O)N2CCN(c3ccccc3F)CC2)c2c1-c1ccccc1S(=O)(=O)C2	9.32
CC(=O)Nc1ccccc1C(=O)C(=O)Nc1ccc(C(=O)NCC2CCCO2)cc1 (stereo not drawn)	21.4
O=C(/C=C\c1ccc2c(c1)OCO2)Nc1c2c(nn1-c1ccc(Cl)cc1)CSC2	16.5
Cc1ccc(CC2(O)CC(C)N(C)CC2C)c(C)c1 (stereo not drawn)	10.9
CC(C)(C)c1ccc(C(=O)NCC(=O)OCC(=O)NC(=O)NC2CCCC2)cc1	-1.2
COc1ccc(NC(=O)c2ccc(NC(=O)CN(C)CC(=O)Nc3c(C)cccc3C)cc2)cc1	10.2

SMILES	hERG current change (%, negative = inhibition) at 1uM [%]
CCOC(=O)c1sc2nc(N3CCOCC3)c3c(c2c1N)CCN(Cc1ccccc1)C3	-0.326
C=CCNC(=O)c1cnn(-c2ccccc2)c1-c1ccccc1	-0.501
CC1=C(C(=O)NC(C)c2ccc3c(c2)OCCO3)C2(CCC(C)CC2)OC1=O (stereo not drawn)	12.4
CCOc1ccc(NC(=O)Nc2ccc3nccnc3c2)cc1	9.38
CCn1cc(Br)c(C(=O)NCc2ccco2)n1	12.3
O=C(NC(=O)N1CCCc2ccccc21)c1ccccc1	2.21
CC1Cc2ccccc2N1C(=O)CSc1nnnn1C (stereo not drawn)	3.45
CCOC(=O)C1=C(c2ccccc2)N2CCS(=O)(=O)N=C2S1	-4.61
COc1cccc(C2/C(=C(/O)c3ccc4c(c3)CC(C)O4)C(=O)C(=O)N2CC2CCCO2)c1 (stereo not drawn)	9.11
CCN=C1SC(C(=O)Nc2cc(Cl)cc(Cl)c2)CC(=O)N1CC (stereo not drawn)	16.8
COc1ccc(-n2nnc3c(SCC(=O)NCC4CCCO4)ncnc32)cc1 (stereo not drawn)	8.3
O=C(Nc1nnc(SCC(=O)N2CCCCC2)s1)C1CCCCC1	13.8
CC(=O)N(C)c1ccc(NC(=O)c2ccccc2C(=O)O)cc1	3.72
COc1ccc(-c2csc(N)n2)cc1F	25.8
CC(C)(C)N1C(=O)c2ccc(C(=O)NCc3ccco3)cc2C1=O	4.71
Nc1nc(NCC2CCCO2)nc(Nc2ccc(F)cc2)c1[N+](=O)[O-] (stereo not drawn)	4.45
CC#CC[N+](C)(C)CCCCCCCCCCCC.[Br-]	-6.29
COC(=O)c1sccc1NC(=O)c1cc(-c2ccc(C)cc2C)nc2ccccc12	6.32
O=c1[nH]n(-c2cccc3cccnc23)c(=O)c2ccccc12	-7.05
Cc1sc2ncn(CC(=O)Nc3c(F)cccc3F)c(=O)c2c1S(=O)(=O)N1CCC(C)CC1	18
CNCc1c(OCc2ccccc2F)ccc2ccccc12.Cl	0.755
O=C(c1c[nH]c(C(=O)N2CCN(Cc3ccccc3)CC2)c1)C1CCCCC1	7.45

SMILES	hERG current change (%, negative = inhibition) at 1uM [%]
CCOC(=O)c1sc(-c2ccccc2)cc1NC(=O)Nc1ccc([N+](=O)[O-])cc1	15.9
Cc1cc(NC(=O)CSc2nc(C3CCCCC3)nc3ccccc23)no1	14.8
Cc1ccc([N+](=O)[O-])cc1NC(=S)NC(=O)c1cccs1	12.2
Cl.N[C@@H](Cc1ccccc1)C(=O)N1CCC(C(=O)N[C@@H](CCC(=O)O)C(=O)O)CC1	6.51
Cc1ccc(C)c(NC2=CC(=O)CC(C)(C)C2)c1C#N.Cl	1.32
O=C(Nc1ccccn1)c1sc2cc([N+](=O)[O-])ccc2c1Cl	16.8
O=[N+]([O-])c1ccc(N/N=C/c2cccnc2)cc1	9.27
CCN1CCN(c2ccc(NC(=O)c3ccco3)cc2)CC1	6.04
Cc1cccn2c(=O)c3cc(C#N)c(=NC(=O)c4cccs4)n(CCCOC(C)C)c3nc12	-26.1
Cc1cccc(-c2noc(C3CCCCC3)n2)c1	14.5
O=C(COC(=O)c1cc([N+](=O)[O-])ccc1NCc1ccccc1Cl)NCC(F)(F)F	-0.68
Cc1nonc1CC(=O)NC1CC(C)(C)Cc2c1cnn2-c1ccc(F)cc1 (stereo not drawn)	4.98
O=C(Nc1ccc2c(c1)OCCO2)C1CCCN1C(=O)Nc1ccc(F)cc1 (stereo not drawn)	13
CCCCN(Cc1cccs1)S(=O)(=O)c1ccc(-c2ccc(=O)[nH]n2)s1	12.2
COCCN(C(=O)Cn1nnc2ccccc21)C(C(=O)NC1CCCC1)c1cc(OC)ccc1OC (stereo not drawn)	-0.322
Cc1c(N/N=C(\C#N)C(=O)c2ccc(Cl)cc2)c(=O)n(-c2ccccc2)n1C	11.2
COc1ccc(OC)c(NC(=O)Cn2c(=O)oc3ccccc32)c1	7.02
CCN(CC)S(=O)(=O)c1ccc(N2CCCCC2)c(NC(=O)c2ccncc2)c1	6.47
CC(=O)NCCn1c(SCc2ccccc2C)nc2ccccc2c1=O	1.26
CCNC(=S)N/N=C(\C)c1ccc(Cl)s1	19.3
COc1ccc(OCc2nnc(SCC(=O)NC3CC3)n2C)cc1	14.3
COc1ccc(CCN(C)C(=O)COc2ccc(N(C)S(=O)(=O)c3ccc(C)cc3)cc2)cc1OC	7.35

SMILES	hERG current change (%, negative = inhibition) at 1uM [%]
Cc1ccc(S(=O)(=O)N(C)C)cc1NC(=S)Nc1ccc2cn[nH]c2c1	6.7
COc1ccccc1CNC(=O)CCc1nnc2ccc(NCCCN3CCCC3=O)nn12	12.9
Cc1cc(C(=O)N/N=C/c2ccc3c(c2)OCO3)c(C)o1	5.47
OCC1(Cc2ccccc2)CCCN(C2CCCC2)C1 (stereo not drawn)	-3.43
Cc1ccc2occ(C(=O)c3ccco3)c(=O)c2c1	5.9
C=CCc1cccc2cc(C(=O)NC3=C(C#N)CCC3)c(=O)oc12	1.54
CCOC(=O)N1CCC(N2C(=O)c3ccccc3C2Nc2ccc3c(C)cc(=O)oc3c2)CC1 (stereo not drawn)	-10.6
CCOC(=O)c1c(C)n(CCOC)c2ccc(O)cc12	12.3
CCOC(=O)CN(C(=O)CSc1nnc(C)n1-c1ccccc1)c1cccc([N+](=O)[O-])c1	-1.67
Cc1ccc2nc(SCC(=O)NCc3ccc4c(c3)OCO4)nc(=O)n2c1	8.95
Cc1ccc(C(N)=S)c(C)c1	13.3
CCC(C)/C=C/C1=CC2=C(Cl)C(=O)C3(C)OC(=O)C(C(=O)C(C)C(C)O)C3C2=CO1 (stereo not drawn)	14
CCc1ccc2[nH]c3nc(SCc4nnc(-c5ccccc5)o4)nnc3c2c1	15.3
CN1C(=O)C(c2ccccc2)C(=O)N(C)C1=O	12.6
CC(NC(=O)c1ccc(-c2ccccc2)cc1)C(c1ccccc1)N1CCOCC1 (stereo not drawn)	3.97
CCCCNC(=O)c1ccc(N2CCC3(CC2)OCCO3)c([N+](=O)[O-])c1	5.82
CCCN(CC(=O)Nc1ccc(F)c(F)c1F)C(=O)CCc1nc2ccccc2c(=O)[nH]1	-8.65
COc1ccc(CCNC(=O)C2CCCN(S(=O)(=O)N3CC(C)CC(C)C3)C2)cc1OC (stereo not drawn)	6.52
COCCNCCOCCOc1ccc(Cl)c(C)c1.O=C(O)C(=O)O	3.47
COc1ccc(S(=O)(=O)N(C)C2CCN(C)CC2)cc1	-2.93
CCCN(CC(=O)Nc1ccccc1C)C(=O)Cc1coc2cc(C)ccc12	-23.1
